About 5,800 (2.1%) of roughly 270,000 compounds were called active. Inconclusive means that the source gave no clear call. Such entries were picked first, then a sample of the others. Calls come from the whole dose curve; as a rule, active = well fitted inhibition curve with a large enough effect; inconclusive = small, poorly fitted or top-dose-only effect; inactive = flat fitted curve, though single readings scatter. Potencies beside an inconclusive call are fits to weak or partial responses and may not hold up.
biological target: Microtubule-associated protein tau (Homo sapiens) (UniProt P10636); test: qHTS for Inhibitors of Tau Fibril Formation, Thioflavin T Binding; details: recombinant tau K18 P301L, heparin-induced fibrillization, ThT fluorescence; series mostly up to 57.4 µM; note: nearly all actives have a fitted effect of over 55% in size
How it was run: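 Fibril formation assay: tau K18 P301L at 15 uM with trace Alexa 594 label, heparin inducer 20 uM, pH 7 sodium acetate buffer, 37 C for 6 hr; endpoint ThT signal.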
Potency is the fitted concentration of half-maximal effect; tags give direction and shape of the fitted curve.

Sequence of UniProt P10636 (P10636 whole entry, looked up): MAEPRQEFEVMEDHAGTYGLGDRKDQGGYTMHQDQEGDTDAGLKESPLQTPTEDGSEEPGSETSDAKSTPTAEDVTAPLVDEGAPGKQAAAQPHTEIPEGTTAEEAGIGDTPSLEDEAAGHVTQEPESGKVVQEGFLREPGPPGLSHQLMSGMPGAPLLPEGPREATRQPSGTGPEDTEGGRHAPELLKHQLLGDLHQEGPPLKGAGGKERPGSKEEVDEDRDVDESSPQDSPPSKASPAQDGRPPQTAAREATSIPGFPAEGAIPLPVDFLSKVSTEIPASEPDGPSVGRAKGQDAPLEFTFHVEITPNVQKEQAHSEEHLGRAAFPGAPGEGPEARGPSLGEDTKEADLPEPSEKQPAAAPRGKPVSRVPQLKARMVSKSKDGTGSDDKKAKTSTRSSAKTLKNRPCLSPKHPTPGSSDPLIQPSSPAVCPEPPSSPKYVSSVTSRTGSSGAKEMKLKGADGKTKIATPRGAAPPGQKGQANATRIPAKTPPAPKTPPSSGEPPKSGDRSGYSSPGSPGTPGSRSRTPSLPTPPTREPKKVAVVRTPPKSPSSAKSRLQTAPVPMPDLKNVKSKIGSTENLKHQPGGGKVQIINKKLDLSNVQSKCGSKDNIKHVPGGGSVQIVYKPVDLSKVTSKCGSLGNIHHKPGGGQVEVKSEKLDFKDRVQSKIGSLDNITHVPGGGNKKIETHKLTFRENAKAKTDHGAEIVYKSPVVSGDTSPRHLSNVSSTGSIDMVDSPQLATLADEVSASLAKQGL

Question: With `CCOc1cccc(-c2nnc3sc(COc4ccccc4)nn23)c1` as the molecule, how does the Potency read?
Answer: inconclusive: 11.2 µM [inhibitor, partial curve]

Question: Which Potency does the source give for `O=C(Nc1ccccc1Cl)N1CCC2(CC1)Oc1ccccc1C(=O)N2Cc1ccc(F)cc1` here?
Answer: inactive

Question: `CC(C)(C)c1nc(SCC(=O)Nc2ccc(N3CCOCC3)cc2)c2ccccc2n1` was tested. Which Potency did it give?
Answer: inconclusive: 20 µM [inhibitor, partial curve]

Question: Which Potency does the source give for `COc1cc(NC(=O)c2ccco2)c(OC)cc1NC(=O)Nc1cccc(Cl)c1` here?
Answer: inconclusive: 3.55 µM [inhibitor, full curve]

Question: How did the Potency turn out when `CCOC(=O)c1[nH]c(C)c(C(=O)N2CCN(c3ccccc3)CC2)c1C` was run?
Answer: inconclusive: 50.1 µM [inhibitor, partial curve, poor fit]

Question: For `Cc1cccc(Oc2cc([N+](=O)[O-])cc3c2C(=O)Nc2ccccc2O3)c1`, which Potency is on record?
Answer: inconclusive: 7.94 µM [inhibitor, partial curve]

Question: With `COCCNC(=O)c1c(NC(=O)c2cc(=O)c3cc(C)cc(C)c3o2)sc2c1CCCC2` as the molecule, how does the Potency read?
Answer: inconclusive: 7.94 µM [inhibitor, single point]

Question: `COc1cc(C(=O)NCc2ccc3c(c2)CCN3C(=O)c2ccc(Cl)cc2)cc(OC)c1OC` was tested. Which Potency did it give?
Answer: inconclusive: 0.0631 µM [inhibitor, full curve, poor fit]

Question: `Cc1ccc(N2C(=O)CC(NNc3nc4ccccc4s3)C2=O)cc1C` (stereo not given) was tested. Which Potency did it give?
Answer: inconclusive: 25.1 µM [inhibitor, single point]

Question: Which Potency does the source give for `CC(C)(C)c1ccc(OCc2ccc(C(=O)NCc3cccnc3)o2)cc1` here?
Answer: inconclusive: 25.1 µM [inhibitor, single point]

Question: For `O=C(CSCc1ccccc1)N1CCc2ccccc21`, which Potency is on record?
Answer: inconclusive: 25.1 µM [inhibitor, partial curve]

Question: With `Cc1cc([N+](=O)[O-])nn1CCCC(=O)N1CCN(c2ccc(F)cc2)CC1` as the molecule, how does the Potency read?
Answer: inconclusive: 3.55 µM [inhibitor, full curve]

Question: With `CCCCN(C)C(=O)CSc1c2c(nc3ccc(Cl)cc13)CCCC2` as the molecule, how does the Potency read?
Answer: inconclusive: 3.55 µM [inhibitor, full curve, poor fit]

Question: With `O=C(O)c1cccc(S(=O)(=O)Nc2ccc([N+](=O)[O-])cc2O)c1` as the molecule, how does the Potency read?
Answer: inactive

Question: How did the Potency turn out when `CN(C)/N=C/c1ccc(Sc2ccccc2[N+](=O)[O-])o1` was run?
Answer: inconclusive: 25.1 µM [inhibitor, partial curve, poor fit]

Question: With `N#C/C(=C\c1ccc(N2CCOCC2)o1)C(=O)NCC1CCCO1` (stereo not given) as the molecule, how does the Potency read?
Answer: inactive

Question: Which Potency does the source give for `CCC1(c2ccc(Cl)cc2)NC(=S)N(c2ccccc2)N1` (stereo not given) here?
Answer: inconclusive: 10 µM [inhibitor, partial curve]

Question: For `COc1ccc(/C=C2\OC(=O)c3c(OC)cccc32)cc1OC`, which Potency is on record?
Answer: inconclusive: 2 µM [inhibitor, full curve]

Question: With `CCN(C(=O)c1ccco1)c1nc(CC(=O)Nc2ccc(Cl)cc2)cs1` as the molecule, how does the Potency read?
Answer: inconclusive: 15.8 µM [inhibitor, partial curve, poor fit]

Question: With `Cc1cccc(NC(=O)CSc2nc(-c3cccs3)nc3cc(=O)[nH]n23)c1` as the molecule, how does the Potency read?
Answer: inconclusive: 25.1 µM [inhibitor, single point]

Question: How did the Potency turn out when `Cn1c(-c2c(N)n(CCc3ccccc3)c3nc4ccccc4nc23)nc2ccccc21` was run?
Answer: inconclusive: 14.1 µM [inhibitor, partial curve]

Question: For `Cc1cccc(C)c1NC(=O)CCCSc1nnc(-c2ccco2)n1-c1ccccc1`, which Potency is on record?
Answer: inconclusive: 44.7 µM [inhibitor, single point]

Question: For `CO[C@]12C(COC(N)=O)C3=C(C(=O)C(C)=C(N)C3=O)N1CC1NC12` (stereo not given in full), which Potency is on record?
Answer: inactive

Question: How did the Potency turn out when `CCc1nn(CC(=O)NCc2ccccc2)c(=O)c2cccn12` was run?
Answer: inconclusive: 15.8 µM [activator, partial curve]

Question: `CCC(=O)N1CCCc2cc(S(=O)(=O)N3CCCc4ccccc43)ccc21` was tested. Which Potency did it give?
Answer: inactive

Question: For `Cc1nc2ccccc2c(=O)n1NC(=O)c1cccc([N+](=O)[O-])c1`, which Potency is on record?
Answer: inactive

Question: `COC(=O)Cc1[nH]c(=S)[nH]c1C(=O)OC` was tested. Which Potency did it give?
Answer: inactive

Question: For `CCOc1cc(/C=C2/SC(=S)N(CC(=O)O)C2=O)ccc1OC(=O)c1cccs1`, which Potency is on record?
Answer: inconclusive: 17.8 µM [inhibitor, partial curve]

Question: For `Cc1cc(C)c2c(n1)nn1c(C)c(CCC(=O)Nc3cccc(C)c3C)c(C)nc21`, which Potency is on record?
Answer: inconclusive: 11.2 µM [inhibitor, partial curve]

Question: Which Potency does the source give for `COc1ccc(C(=O)/C=C/Nc2ccc(S(=O)(=O)Nc3nc(C)cc(C)n3)cc2)cc1OC` here?
Answer: inconclusive: 17.8 µM [inhibitor, single point]

Question: `COc1ccc(/C=C/C(=O)C23CC4CC(CC(C4)C2)C3)cc1CN1CCOCC1` was tested. Which Potency did it give?
Answer: inconclusive: 39.8 µM [inhibitor, single point]

Question: How did the Potency turn out when `O=C(Nc1ccc2c(c1)CCC2)Nc1ccc2c(c1)OCO2` was run?
Answer: inconclusive: 0.501 µM [inhibitor, full curve, poor fit]

Question: With `COc1cc(OC)c(OC)cc1/C=C1\Oc2cc(OS(C)(=O)=O)ccc2C1=O` as the molecule, how does the Potency read?
Answer: inconclusive: 22.4 µM [inhibitor, partial curve, poor fit]

Question: With `N#Cc1cc([N+](=O)[O-])ccc1Oc1cccc(/C=N/NC(=O)c2ccc(Cl)cc2)c1` as the molecule, how does the Potency read?
Answer: inactive

Question: Which Potency does the source give for `CN(CC(=O)N1CC=C(c2ccccc2)CC1)S(=O)(=O)c1ccc2c(c1)c(=O)n(C)c(=O)n2C` here?
Answer: inactive

Question: For `CCCNC(=O)CSCc1nc(-c2ccc(SC)cc2)oc1C`, which Potency is on record?
Answer: inconclusive: 17.8 µM [inhibitor, partial curve]

Question: With `COCCn1c(C)cc(O)c(C(c2ccccc2)N2CCC(C)CC2)c1=O` (stereo not given) as the molecule, how does the Potency read?
Answer: inconclusive: 15.8 µM [inhibitor, partial curve, poor fit]

Question: With `CCOc1ccc2c(c1)c1nnc(SCC3CCCO3)nc1n2C` (stereo not given) as the molecule, how does the Potency read?
Answer: inconclusive: 15.8 µM [inhibitor, partial curve]

Question: Which Potency does the source give for `O=C(CCN1CCN(c2ccc(Cl)cc2)CC1)Nc1ccccc1F` here?
Answer: inconclusive: 5.01 µM [inhibitor, partial curve, poor fit]

Question: For `O=C(NC1CCN(C(=O)N2c3ccccc3Sc3ccccc32)CC1)c1ccccc1Cl`, which Potency is on record?
Answer: inconclusive: 44.7 µM [inhibitor, single point]

From PubChem BioAssay AID1460 (National Center for Advancing Translational Sciences (NCATS), 2008)
